# Test results published in PubChem BioAssay AID504706 (National Center for Advancing Translational Sciences (NCATS), 2011).
# Among all 320,000 compounds or so, about 200 (0.062%) were called active. Inconclusive results, whose numbers are uncertain, are shown with a selection of clear calls. Calls follow the shape of the dose curve; as a rule, active = well fitted activation curve with a large enough effect; inconclusive = small, poorly fitted or top-dose-only effect; inactive = no such curve, though single readings can be large or run the other way. Potencies of inconclusive entries are left out as doubtful fits.
# Experiment: qHTS assay for re-activators of p53 using a Luc reporter; also: nearly all actives have a fitted effect of over 45% in size; as to activity change, positive = activation: % of control where 0% means no effect
# Conditions: H1299 p53-A138V BP100-luciferase reporter, luminescence, 24 h; series mostly up to 92.2 µM; activity change, positive = activation: at the top concentration
# In short: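 H1299 (p53-null), stable ts p53-A138V + BP100-Luc; 1000 cells/well, Opti-MEM/10% FBS; cpd 4 pt, 1:5; 24 h, 37 deg C, 5% CO2; detection reagent 10 min RT; luminescence.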
# Potency is read from the fitted curve at half-maximal effect; tags tell the direction and shape of the fitted curve.
Compound,"activity change, positive = activation",Potency
Cc1ccc(N2C(=O)C3C(C2=O)N2CCCN2C3c2ccccc2)cc1C (configuration not stated),inactive: 0.932%,
O=C(C1CCN(c2ncnc3c2nc2n3CCCCC2)CC1)N1CCN(c2cccc(Cl)c2)CC1,,"inconclusive [activator, single point]"
COc1cc2ccccc2cc1C(=O)NC1CCCCC1,,"inconclusive [activator, full curve, poor fit]"
Cc1cccc(N=Nc2cn[nH]c2-c2ccco2)c1,,"inconclusive [activator, partial curve, poor fit]"
Cc1scc(C(=O)N/N=C/c2ccc([N+](=O)[O-])o2)c1C,inactive: -49.8%,
CN(C)c1ccc(C(=O)c2ccc(N(C)C)c3ccccc23)cc1,,"inconclusive [activator, partial curve, poor fit]"
Cc1ccc(-n2c(=O)c3sccc3n(Cc3cc(=O)n4ccccc4n3)c2=O)cc1F,,"inconclusive [activator, single point]"
CCOc1ccc(-c2nnc(NC(=O)CCCOc3cccc(C)c3)o2)cc1,,"inconclusive [activator, single point]"
CCCCc1ccc(NC(=S)Nc2ccc(Nc3ccc(OC)cc3)cc2)cc1,,"inconclusive [activator, partial curve, poor fit]"
CSc1ccc(/C=C/C(=O)N2CCCN(C)CC2)cc1,inactive: 16.1%,
Cc1ccc(NC(=O)CCc2c(C)nn(-c3ccc(N4CCOCC4)nn3)c2C)cc1C,,"inconclusive [activator, single point]"
COc1ccc([C@H]2CC(=O)C=C(c3cccc(OC)c3OC)C2)cc1OC,inactive: -10.3%,
O=C(Nc1c(C(=O)Nc2ccc3c(c2)OCCO3)cnn1-c1ccccc1Cl)c1ccco1,,"inconclusive [activator, single point]"
Cc1ccc(-c2cc(-c3ccccc3)no2)cc1,,"inconclusive [activator, full curve, poor fit]"
CC1CC(c2ccccc2)=Nc2ccccc2N1 (configuration not stated),inactive: 17.4%,
O=C(NCCc1ccccc1)C(=O)NCC1OCCN1S(=O)(=O)c1ccc2c(c1)OCCO2 (configuration not stated),,"inconclusive [activator, single point]"
C/C(CC(=O)Nc1ccccn1)=N\NC(=O)c1ccccc1O,,"inconclusive [activator, partial curve, poor fit]"
COC(=O)C1=C(C)OC(N)=C(C#N)C1c1ccco1 (configuration not stated),,"inconclusive [activator, single point]"
C/C(=N\NS(=O)(=O)c1ccc([N+](=O)[O-])cc1)c1ccc(NC(=O)c2ccco2)cc1,inactive: 15.6%,
CCOC(=O)c1c(C)[nH]c(C2=NNC(=NC3CC3)SC2)c1C,inactive: -4.99%,
COc1ccc(C2=CN3CCCCC3CC2=O)cc1OC (configuration not stated),,"inconclusive [activator, partial curve, poor fit]"

Compound,"activity change, positive = activation",Potency
COC(=O)c1ccc(NC(=O)CNC(=O)c2sc3ccccc3c2Cl)cc1,,"inconclusive [activator, single point]"
Cc1cccc(-c2nc(C#N)c(N3CCCCCC3)o2)c1,,"inconclusive [activator, partial curve, poor fit]"
Cc1csc(NC(=O)c2sccc2C)n1,,"inconclusive [activator, full curve, poor fit]"
O=C(OCC1OC(n2ccc(=O)[nH]c2=O)C(Cl)C1O)c1ccccc1 (configuration not stated),inactive: -2.04%,
COc1cc(C(c2c(C)[nH][nH]c2=O)c2c(C)[nH][nH]c2=O)cc(Br)c1OC,,"inconclusive [activator, single point]"
CC(C)Oc1ccc(C(=O)NCc2ccco2)cc1,,"inconclusive [activator, partial curve, poor fit]"
CCOc1c2ccoc2nc2c(OC)c(OC)ccc12,inactive: 3.35%,
COc1ccccc1N1CCN(C(=O)CN(c2ccccc2OC)S(=O)(=O)c2ccccc2)CC1,,"inconclusive [activator, partial curve, poor fit]"
COc1ccc([C@H]2CC(=O)C=C(c3ccc(SC)cc3)C2)cc1,,"inconclusive [activator, single point]"
CCOC(=O)c1c(C)[nH]c(C(=O)NNC(=O)c2ccc(Br)cc2)c1C,,"inconclusive [activator, full curve, poor fit]"
CCc1nnc(NS(=O)(=O)c2ccc(N/C=C\C(=O)c3cccc(OC)c3)cc2)s1,inactive: 0.693%,
CN(Cc1ccccc1)C(=O)COC(=O)c1ccc(Cl)c(N)c1,,"inconclusive [activator, partial curve, poor fit]"
CC1CN(C(=O)c2cc(S(=O)(=O)N3CCCCC3)ccc2Cl)CC(C)O1 (configuration not stated),,"inconclusive [activator, single point]"
Cc1cccc(-c2nc3cc(NC(=O)C4CCCO4)ccc3o2)c1 (configuration not stated),,"inconclusive [activator, partial curve, poor fit]"
Cc1ccc(NC(=O)c2nc[nH]c2C(=O)N(C)Cc2ccccc2)cc1,,"inconclusive [activator, partial curve, poor fit]"
CC(=NNC(=O)c1cccs1)c1ccc2c(c1)OCCO2,,"inconclusive [activator, full curve, poor fit]"
O=[N+]([O-])c1ccccc1NCc1c(O)ccc2ccccc12,inactive: 1.79%,
COc1ccc(/C=C/c2ccc3cccc(O)c3n2)cc1Br,,"inconclusive [activator, partial curve, poor fit]"
Cc1ccc(C(=O)OCC(=O)NCC2COc3ccccc3O2)cc1 (configuration not stated),,"inconclusive [activator, partial curve, poor fit]"
O=[N+]([O-])c1cccc(N/N=C/c2cccc3ccccc23)c1,,"inconclusive [activator, full curve, poor fit]"
COc1ccc(CCNC(=O)c2nnn(-c3ccc4c(c3)OCCO4)c2N)cc1OC,,"inconclusive [activator, full curve, poor fit]"
